{
  "source": "patent US7410975B2",
  "about": "“Small molecule toll-like receptor (TLR) antagonists” (Coley Pharmaceutical Group, Inc., priority 2003, dated 2008)",
  "note": "Counter-ions that a name gives are not always drawn.",
  "data": [
    {"biological_target": "T1, human TLR8 (hTLR8) (Homo sapiens, UniProt Q9NR97)", "T1 construct": "expressed in transfected cells", "T1 sequence (Q9NR97 27-1041)": "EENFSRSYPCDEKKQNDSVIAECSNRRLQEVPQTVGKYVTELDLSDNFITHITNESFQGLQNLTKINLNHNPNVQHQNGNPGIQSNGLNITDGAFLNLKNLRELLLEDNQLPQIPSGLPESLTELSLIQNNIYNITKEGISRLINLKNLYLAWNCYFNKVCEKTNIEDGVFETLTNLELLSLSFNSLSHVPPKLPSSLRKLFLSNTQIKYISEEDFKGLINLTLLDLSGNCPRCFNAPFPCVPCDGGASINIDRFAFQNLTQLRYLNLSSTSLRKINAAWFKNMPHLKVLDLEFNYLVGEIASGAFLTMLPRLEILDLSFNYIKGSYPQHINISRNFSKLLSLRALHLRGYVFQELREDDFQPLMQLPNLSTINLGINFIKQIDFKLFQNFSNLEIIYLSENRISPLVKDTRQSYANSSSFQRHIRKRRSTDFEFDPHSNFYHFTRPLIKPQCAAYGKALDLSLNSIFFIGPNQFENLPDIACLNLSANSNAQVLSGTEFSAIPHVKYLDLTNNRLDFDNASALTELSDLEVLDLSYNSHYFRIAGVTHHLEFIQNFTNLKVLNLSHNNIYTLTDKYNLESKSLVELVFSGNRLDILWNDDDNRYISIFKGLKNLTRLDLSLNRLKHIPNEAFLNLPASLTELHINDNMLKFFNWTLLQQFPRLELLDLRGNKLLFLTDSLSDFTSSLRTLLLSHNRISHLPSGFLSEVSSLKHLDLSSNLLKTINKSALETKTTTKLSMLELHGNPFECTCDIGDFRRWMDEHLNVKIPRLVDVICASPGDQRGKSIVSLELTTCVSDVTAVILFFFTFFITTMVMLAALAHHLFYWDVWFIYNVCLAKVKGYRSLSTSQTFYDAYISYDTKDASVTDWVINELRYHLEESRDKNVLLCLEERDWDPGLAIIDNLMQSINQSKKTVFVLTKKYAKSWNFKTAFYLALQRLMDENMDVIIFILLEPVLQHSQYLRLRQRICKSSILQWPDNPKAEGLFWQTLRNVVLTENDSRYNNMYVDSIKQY", "test": "Antagonist screen, hTLR8-NFκB-293 cells, NF-κB-luciferase reporter, with EC50 of R848", "assay_type": "cell-based", "conditions": "compound at 0.5, 5, 50 μg/ml, EC50 concentration of R848, 16 h", "protocol": "The method is described in greater detail as follows. The cells for each individual cell clone (hTLR3-NFκB-293, hTLR7-NFκB-293, hTLR8-NFκB-293 and hTLR9-NFκB-293) were counted and seeded one day before the stimulation at 1.5×10^4 cells per well in 96-well cell culture plates. To become adherent the cells were incubated after seeding overnight at 37° C. in 5% CO2 humidified air.\nThe screen for each compound was performed at the same time for all of the receptors TLR3, TLR7, TLR8 and TLR9. Up to fifteen test compounds, each assayed in duplicate at each of three different final concentrations (0.5 μg/ml, 5 μg/ml, and 50 μg/ml), were used for 16 h cell stimulation on a single multiwell culture plate. A 4× final concentration master plate was created to prepare the different test compounds before they were added to the cells.\nControls were added as duplicates individually for each cell clone on the cell culture plate. Positive controls were used as follows (final concentrations): 50 μg/ml poly(I:C) for hTLR3-NFκB-293; 8 μM resiquimod (R848) for hTLR7-NFκB-293; 30 μM R848 for hTLR8-NFκB-293; and 2.5 μM CpG-ODN 2006 for hTLR9-NFκB-293. Media alone was used as negative control. After addition of controls and small molecules, the cell clones were additionally stimulated with the EC50 concentration of the appropriate receptor-specific ligand. […]\nThe baseline result (measured with addition of the EC50 concentration of the receptor-specific ligand) for each cell culture plate was measured as described above. Antagonistic effects were measured by down regulation compared to the baseline. Antagonists were scored as follows: • 13: compounds for which there was clear down regulation at 0.5 μg/ml, 5 μg/ml, and 50 μg/ml; • 12: compounds for which there was clear down regulation at 5 μg/ml and 50 μg/ml; • 11: compounds for which there was clear down regulation only at 50 μg/ml; • —: compounds for which there was no clear down regulation even at 50 μg/ml. […]\nResults were expressed as fold induction over baseline luciferase activity measured in the absence of R848. […]", "values": [
      {"compound": "CN1CCN2c3ccccc3Cc3ccccc3C2C1.Cl", "note": "(stereo not drawn) [compound 99, Mianserinehydrochloride]", "hTLR8 (inhibitory effect, antagonist score)": "— (compounds for which there was no clear down regulation even at 50 μg/ml)"},
      {"compound": "Cc1ccccc1C(OCCN(C)C)c1ccccc1", "note": "(stereo not drawn) [compound 239, Orphenadrinehydrochloride]", "hTLR8 (inhibitory effect, antagonist score)": "— (compounds for which there was no clear down regulation even at 50 μg/ml)"},
      {"compound": "CN1CCC[C@@H]1CCO[C@](C)(c1ccccc1)c1ccc(Cl)cc1.O=C(O)/C=C/C(=O)O", "note": "[compound 306, Clemastine fumarate]", "hTLR8 (inhibitory effect, antagonist score)": "11 (compounds for which there was clear down regulation only at 50 μg/ml)"}
    ]}
  ]
}
